{"source": "the supplement of paper PMC8728848", "binders": {"B1": {"name": "MRCL (Homo sapiens), NP_872425.1 (protein)", "chain": "ATKVHFPFHTCDLRIDGDCFMVSSEADTYYRARMKCQRKGGVLAQIKSQKVQDILAFYLGRLETTNEVTDSDFETRNFWIGLTYKTAKDSFRWATGEHQAFTSFAFGQPDNHGLVWLSAAMGFGNCVELQASAAFNWNNQRCKTRNRYICQFAQEHISRWGPGS"}}, "assay_in_all_cases": "glycan array binding signal (z-score within array); higher = stronger binding", "conditions_in_all_cases": "glycan notation: IUPAC condensed, linker removed", "key": {"[1]": {"biological_target": "Neu5Ac(a2-3)Gal(b1-4)Glc", "procedure,_shortened": "(§1)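 The binding signal is a Z-score computed within each array and averaged over linkers. Arrays of the same protein sequence at different concentrations or buffers were also averaged together. Data originate from 3228 arrays in the Consortium for Functional Glycomics database, kept only where the protein sequence was available.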"}, "[2]": {"biological_target": "Neu5Ac(a2-3)Gal(b1-4)GlcNAc", "procedure,_shortened": "as §1"}, "[3]": {"biological_target": "Neu5Ac(a2-3)Gal(b1-4)GlcNAc(b1-2)Man(a1-3)[GlcNAc(b1-2)Man(b1-4)GlcNAc(b1-2)Man(a1-6)]Man(b1-4)GlcNAc(b1-4)GlcNAc", "procedure,_shortened": "as §1"}, "[4]": {"biological_target": "Neu5Ac(a2-3)Gal(b1-4)GlcNAc(b1-2)Man(a1-3)[Neu5Ac(a2-6)Gal(b1-4)GlcNAc(b1-2)Man(a1-6)]Man(b1-4)GlcNAc(b1-4)GlcNAc", "procedure,_shortened": "as §1"}, "[5]": {"biological_target": "Neu5Ac(a2-3)Gal(b1-4)GlcNAc(b1-3)Gal(b1-3)GlcNAc", "procedure,_shortened": "as §1"}, "[6]": {"biological_target": "Neu5Ac(a2-3)Gal(b1-4)GlcNAc(b1-3)Gal(b1-4)GlcNAc", "procedure,_shortened": "as §1"}, "[7]": {"biological_target": "Neu5Ac(a2-3)Gal(b1-4)GlcNAc(b1-3)Gal(b1-4)GlcNAc(b1-3)Gal(b1-4)GlcNAc", "procedure,_shortened": "as §1"}, "[8]": {"biological_target": "Neu5Ac(a2-3)Gal(b1-4)GlcNAc(b1-3)Gal(b1-4)[Fuc(a1-3)]GlcNAc", "procedure,_shortened": "as §1"}, "[9]": {"biological_target": "Neu5Ac(a2-3)Gal(b1-4)GlcNAc(b1-3)GalNAc", "procedure,_shortened": "as §1"}, "[10]": {"biological_target": "Neu5Ac(a2-3)Gal(b1-4)GlcNAc(b1-6)[Gal(b1-3)]GalNAc", "procedure,_shortened": "as §1"}, "[11]": {"biological_target": "Neu5Ac(a2-3)Gal(b1-4)GlcNAc(b1-6)[Neu5Ac(a2-3)Gal(b1-3)]GalNAc", "procedure,_shortened": "as §1"}, "[12]": {"biological_target": "Neu5Ac(a2-3)Gal(b1-4)GlcNAc6S", "procedure,_shortened": "as §1"}, "[13]": {"biological_target": "Neu5Ac(a2-3)Gal(b1-4)[Fuc(a1-3)]GlcNAc", "procedure,_shortened": "as §1"}, "[14]": {"biological_target": "Neu5Ac(a2-3)Gal(b1-4)[Fuc(a1-3)]GlcNAc(b1-3)Gal", "procedure,_shortened": "as §1"}, "[15]": {"biological_target": "Neu5Ac(a2-3)Gal(b1-4)[Fuc(a1-3)]GlcNAc(b1-3)Gal(b1-4)GlcNAc", "procedure,_shortened": "as §1"}, "[16]": {"biological_target": "Neu5Ac(a2-3)Gal(b1-4)[Fuc(a1-3)]GlcNAc(b1-3)Gal(b1-4)[Fuc(a1-3)]GlcNAc(b1-3)Gal(b1-4)[Fuc(a1-3)]GlcNAc", "procedure,_shortened": "as §1"}, "[17]": {"biological_target": "Neu5Ac(a2-3)Gal(b1-4)[Fuc(a1-3)]GlcNAc(b1-6)[Gal(b1-3)]GalNAc", "procedure,_shortened": "as §1"}, "[18]": {"biological_target": "Neu5Ac(a2-3)Gal(b1-4)[Fuc(a1-3)]GlcNAc(b1-6)[Neu5Ac(a2-3)Gal(b1-3)]GalNAc", "procedure,_shortened": "as §1"}, "[19]": {"biological_target": "Neu5Ac(a2-3)Gal(b1-4)[Fuc(a1-3)]GlcNAc6S", "procedure,_shortened": "as §1"}, "[20]": {"biological_target": "Neu5Ac(a2-3)Gal6S(b1-4)GlcNAc", "procedure,_shortened": "as §1"}, "[21]": {"biological_target": "Neu5Ac(a2-3)Gal6S(b1-4)[Fuc(a1-3)]GlcNAc", "procedure,_shortened": "as §1"}, "[22]": {"biological_target": "Neu5Ac(a2-3)GalNAc", "procedure,_shortened": "as §1"}, "[23]": {"biological_target": "Neu5Ac(a2-3)GalNAc(b1-4)GlcNAc", "procedure,_shortened": "as §1"}, "[24]": {"biological_target": "Neu5Ac(a2-3)[GalNAc(b1-4)]Gal(b1-4)Glc", "procedure,_shortened": "as §1"}, "[25]": {"biological_target": "Neu5Ac(a2-3)[GalNAc(b1-4)]Gal(b1-4)GlcNAc", "procedure,_shortened": "as §1"}, "[26]": {"biological_target": "Neu5Ac(a2-3)[Neu5Ac(a2-6)]GalNAc", "procedure,_shortened": "as §1"}, "[27]": {"biological_target": "Neu5Ac(a2-6)Gal", "procedure,_shortened": "as §1"}, "[28]": {"biological_target": "Neu5Ac(a2-6)Gal(b1-4)Glc", "procedure,_shortened": "as §1"}, "[29]": {"biological_target": "Neu5Ac(a2-6)Gal(b1-4)GlcNAc", "procedure,_shortened": "as §1"}, "[30]": {"biological_target": "Neu5Ac(a2-6)Gal(b1-4)GlcNAc(b1-2)Man(a1-3)Man(b1-4)GlcNAc(b1-4)GlcNAc", "procedure,_shortened": "as §1"}, "[31]": {"biological_target": "Neu5Ac(a2-6)Gal(b1-4)GlcNAc(b1-2)Man(a1-3)[Gal(b1-4)GlcNAc(b1-2)Man(a1-6)]Man(b1-4)GlcNAc(b1-4)GlcNAc", "procedure,_shortened": "as §1"}, "[32]": {"biological_target": "Neu5Ac(a2-6)Gal(b1-4)GlcNAc(b1-2)Man(a1-3)[GlcNAc(b1-2)Man(a1-6)]Man(b1-4)GlcNAc(b1-4)GlcNAc", "procedure,_shortened": "as §1"}, "[33]": {"biological_target": "Neu5Ac(a2-6)Gal(b1-4)GlcNAc(b1-2)Man(a1-3)[GlcNAc(b1-2)Man(b1-4)GlcNAc(b1-2)Man(a1-6)]Man(b1-4)GlcNAc(b1-4)GlcNAc", "procedure,_shortened": "as §1"}, "[34]": {"biological_target": "Neu5Ac(a2-6)Gal(b1-4)GlcNAc(b1-2)Man(a1-3)[Man(a1-6)]Man(b1-4)GlcNAc(b1-4)GlcNAc", "procedure,_shortened": "as §1"}, "[35]": {"biological_target": "Neu5Ac(a2-6)Gal(b1-4)GlcNAc(b1-2)Man(a1-3)[Neu5Ac(a2-6)Gal(b1-4)GlcNAc(b1-2)Man(a1-6)]Man(b1-4)GlcNAc(b1-4)GlcNAc", "procedure,_shortened": "as §1"}, "[36]": {"biological_target": "Neu5Ac(a2-6)Gal(b1-4)GlcNAc(b1-2)Man(a1-6)Man(b1-4)GlcNAc(b1-4)GlcNAc", "procedure,_shortened": "as §1"}, "[37]": {"biological_target": "Neu5Ac(a2-6)Gal(b1-4)GlcNAc(b1-2)Man(a1-6)[Gal(b1-4)GlcNAc(b1-2)Man(a1-3)]Man(b1-4)GlcNAc(b1-4)GlcNAc", "procedure,_shortened": "as §1"}, "[38]": {"biological_target": "Neu5Ac(a2-6)Gal(b1-4)GlcNAc(b1-2)Man(a1-6)[GlcNAc(b1-2)Man(a1-3)]Man(b1-4)GlcNAc(b1-4)GlcNAc", "procedure,_shortened": "as §1"}, "[39]": {"biological_target": "Neu5Ac(a2-6)Gal(b1-4)GlcNAc(b1-2)Man(a1-6)[Man(a1-3)]Man(b1-4)GlcNAc(b1-4)GlcNAc", "procedure,_shortened": "as §1"}, "[40]": {"biological_target": "Neu5Ac(a2-6)Gal(b1-4)GlcNAc(b1-3)Gal(b1-3)GlcNAc", "procedure,_shortened": "as §1"}, "[41]": {"biological_target": "Neu5Ac(a2-6)Gal(b1-4)GlcNAc(b1-3)Gal(b1-4)GlcNAc", "procedure,_shortened": "as §1"}, "[42]": {"biological_target": "Neu5Ac(a2-6)Gal(b1-4)GlcNAc(b1-3)Gal(b1-4)GlcNAc(b1-3)Gal(b1-4)GlcNAc", "procedure,_shortened": "as §1"}, "[43]": {"biological_target": "Neu5Ac(a2-6)Gal(b1-4)GlcNAc(b1-3)Gal(b1-4)[Fuc(a1-3)]GlcNAc(b1-3)Gal(b1-4)[Fuc(a1-3)]GlcNAc", "procedure,_shortened": "as §1"}, "[44]": {"biological_target": "Neu5Ac(a2-6)Gal(b1-4)GlcNAc(b1-3)GalNAc", "procedure,_shortened": "as §1"}, "[45]": {"biological_target": "Neu5Ac(a2-6)Gal(b1-4)GlcNAc6S", "procedure,_shortened": "as §1"}}, "note": "This is one part of the list."}
{"binder": "B1", "values": [{"measurement": "glycan array binding signal (z-score)", "setting": "[1]", "value": -0.235}, {"measurement": "glycan array binding signal (z-score)", "setting": "[2]", "value": -0.626}, {"measurement": "glycan array binding signal (z-score)", "setting": "[3]", "value": -0.294}, {"measurement": "glycan array binding signal (z-score)", "setting": "[4]", "value": -0.156}, {"measurement": "glycan array binding signal (z-score)", "setting": "[5]", "value": 0.087}, {"measurement": "glycan array binding signal (z-score)", "setting": "[6]", "value": -0.539}, {"measurement": "glycan array binding signal (z-score)", "setting": "[7]", "value": -0.184}, {"measurement": "glycan array binding signal (z-score)", "setting": "[8]", "value": -0.365}, {"measurement": "glycan array binding signal (z-score)", "setting": "[9]", "value": -0.532}, {"measurement": "glycan array binding signal (z-score)", "setting": "[10]", "value": 2.79}, {"measurement": "glycan array binding signal (z-score)", "setting": "[11]", "value": -0.476}, {"measurement": "glycan array binding signal (z-score)", "setting": "[12]", "value": -0.471}, {"measurement": "glycan array binding signal (z-score)", "setting": "[13]", "value": -0.275}, {"measurement": "glycan array binding signal (z-score)", "setting": "[14]", "value": -0.035}, {"measurement": "glycan array binding signal (z-score)", "setting": "[15]", "value": -0.637}, {"measurement": "glycan array binding signal (z-score)", "setting": "[16]", "value": -0.442}, {"measurement": "glycan array binding signal (z-score)", "setting": "[17]", "value": -0.645}, {"measurement": "glycan array binding signal (z-score)", "setting": "[18]", "value": -0.712}, {"measurement": "glycan array binding signal (z-score)", "setting": "[19]", "value": 2.57}, {"measurement": "glycan array binding signal (z-score)", "setting": "[20]", "value": -0.333}, {"measurement": "glycan array binding signal (z-score)", "setting": "[21]", "value": -0.64}, {"measurement": "glycan array binding signal (z-score)", "setting": "[22]", "value": -0.424}, {"measurement": "glycan array binding signal (z-score)", "setting": "[23]", "value": 0.235}, {"measurement": "glycan array binding signal (z-score)", "setting": "[24]", "value": 0.305}, {"measurement": "glycan array binding signal (z-score)", "setting": "[25]", "value": -0.242}, {"measurement": "glycan array binding signal (z-score)", "setting": "[26]", "value": -0.175}, {"measurement": "glycan array binding signal (z-score)", "setting": "[27]", "value": 0.351}, {"measurement": "glycan array binding signal (z-score)", "setting": "[28]", "value": -0.34}, {"measurement": "glycan array binding signal (z-score)", "setting": "[29]", "value": -0.541}, {"measurement": "glycan array binding signal (z-score)", "setting": "[30]", "value": -0.253}, {"measurement": "glycan array binding signal (z-score)", "setting": "[31]", "value": 1.25}, {"measurement": "glycan array binding signal (z-score)", "setting": "[32]", "value": -0.489}, {"measurement": "glycan array binding signal (z-score)", "setting": "[33]", "value": -0.471}, {"measurement": "glycan array binding signal (z-score)", "setting": "[34]", "value": 1.4}, {"measurement": "glycan array binding signal (z-score)", "setting": "[35]", "value": 1.23}, {"measurement": "glycan array binding signal (z-score)", "setting": "[36]", "value": -0.627}, {"measurement": "glycan array binding signal (z-score)", "setting": "[37]", "value": -0.538}, {"measurement": "glycan array binding signal (z-score)", "setting": "[38]", "value": 0.663}, {"measurement": "glycan array binding signal (z-score)", "setting": "[39]", "value": -0.277}, {"measurement": "glycan array binding signal (z-score)", "setting": "[40]", "value": 0.693}, {"measurement": "glycan array binding signal (z-score)", "setting": "[41]", "value": -0.66}, {"measurement": "glycan array binding signal (z-score)", "setting": "[42]", "value": -0.367}, {"measurement": "glycan array binding signal (z-score)", "setting": "[43]", "value": -0.377}, {"measurement": "glycan array binding signal (z-score)", "setting": "[44]", "value": -0.457}, {"measurement": "glycan array binding signal (z-score)", "setting": "[45]", "value": 0.995}]}
